Results on 130 sequences are retold here after a collection of fitness landscapes (doi:10.1038/s41467-024-54723-y).

The full ranking holds about 18,000 sequences; the median of “TetR repression strength (sort-seq, GFP reporter)” is about 0.23, and the highest 2% start at about 0.68. This is one part of the list.

Chain of UniProt P04483 (P04483 whole entry): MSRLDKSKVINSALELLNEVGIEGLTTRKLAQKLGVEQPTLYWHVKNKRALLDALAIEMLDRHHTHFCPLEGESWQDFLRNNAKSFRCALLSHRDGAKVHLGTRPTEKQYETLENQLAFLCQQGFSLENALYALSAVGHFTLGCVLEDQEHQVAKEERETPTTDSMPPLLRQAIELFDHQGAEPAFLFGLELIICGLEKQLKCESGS

The target of the assay is TetR (class B, Tn10) (UniProt P04483). Briefly: TetR repression strength (sort-seq, GFP reporter) (relative to tetO2 = 1); higher = stronger repression. The following applies: E. coli. Put shortly:
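Repression strength is the top bin index plus one minus the read-weighted mean bin, relative to the unaltered operator's value. A low-copy library in E. coli SIG10-MAX randomized eight operator positions between a constitutive promoter and sfGFP, with TetR expressed constitutively; cells grew 5 h at 37 °C in LB with 50 µg/mL chloramphenicol and 10^6 were FACS-sorted into 13 bins that were each Illumina-sequenced. Three independent transformations were averaged, keeping only members with ≥30 reads in all replicates and CV ≤0.5.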
TCCCACTAAGTATGTGAGA: the TetR repression strength was 0.148.

On to TCCCTTGAAGTGGGGGAGA, for which the TetR repression strength is 0.266.

Sequence TCCCGGAGAGTTAGTGAGA gave a TetR repression strength of 0.195.

In turn, TCCCTAGGAGTACAGGAGA returned a TetR repression strength of 0.191.

Regarding TCCCGAGAAGTGTATGAGA, the TetR repression strength was found to be 0.304.

TCCCTATTAGTTAAGGAGA displayed a TetR repression strength of 0.207.

In turn, TCCCGTGGAGTGGAGGAGA registered a TetR repression strength of 0.153.

TCCCTTCTAGTTACCGAGA registered a TetR repression strength of 0.369.

As to TCCCGTGTAGTTCAGGAGA, the TetR repression strength was 0.19.

On to TCCCTTAAAGTGCGCGAGA, for which the TetR repression strength was found to be 0.292.

Sequence TCCCTTAGAGTAGCCGAGA returned a TetR repression strength of 0.407.

Consider TCCCGACAAGTGTACGAGA, for which the TetR repression strength is 0.211.

As for TCCCACGGAGTACCAGAGA, the TetR repression strength stood at 0.306.

For the sequence TCCCAAAAAGTGTGGGAGA, the TetR repression strength was 0.415.

TCCCAGCTAGTACGCGAGA showed a TetR repression strength of 0.4.

In turn, TCCCTTCCAGTAGAAGAGA gave a TetR repression strength of 0.245.

The sequence TCCCCTAAAGTTAGTGAGA gave a TetR repression strength of 0.166.

Take TCCCTCATAGTTTTGGAGA: the TetR repression strength was determined as 0.303.

TCCCCTGTAGTTGTCGAGA had a TetR repression strength of 0.123.

The sequence TCCCGTCGAGTTTAGGAGA came in with a TetR repression strength of 0.268.

With TCCCGGCCAGTTTAGGAGA, the TetR repression strength was determined as 0.246.

On to TCCCGCATAGTACGTGAGA, for which the TetR repression strength turned out to be 0.273.

TCCCAATAAGTGGCAGAGA came in with a TetR repression strength of 0.32.

Take TCCCAGTTAGTTGAGGAGA: the TetR repression strength amounted to 0.231.

For the sequence TCCCCCAGAGTAGGGGAGA, the TetR repression strength was determined as 0.102.

With TCCCGCTCAGTAAAAGAGA, the TetR repression strength is 0.427.

Consider TCCCTATAAGTGAAGGAGA, for which the TetR repression strength turned out to be 0.492.

In the case of TCCCAGCAAGTTGCCGAGA, the TetR repression strength stood at 0.11.

TCCCTTTCAGTACTAGAGA gave a TetR repression strength of 0.354.

For the sequence TCCCAACAAGTGGATGAGA, the TetR repression strength came out at 0.243.

TCCCATTTAGTGAGAGAGA yielded a TetR repression strength of 0.66.

TCCCAAGGAGTACATGAGA registered a TetR repression strength of 0.202.

As to TCCCGACAAGTCAGTGAGA, the TetR repression strength was 0.339.

Sequence TCCCCTATAGTATCAGAGA had a TetR repression strength of 0.138.

For TCCCCGAGAGTCATAGAGA, the TetR repression strength was 0.041.

The sequence TCCCCTTCAGTCGAGGAGA registered a TetR repression strength of 0.0622.

In turn, TCCCGTTAAGTGTCTGAGA had a TetR repression strength of 0.183.

The sequence TCCCAACTAGTAACGGAGA yielded a TetR repression strength of 0.3.

Take TCCCGTTTAGTTCCGGAGA: the TetR repression strength amounted to 0.148.

TCCCCAAGAGTTGCAGAGA gave a TetR repression strength of 0.406.

TCCCAACTAGTGTCGGAGA had a TetR repression strength of 0.141.

TCCCCACGAGTTGTGGAGA: the TetR repression strength turned out to be 0.307.

In turn, TCCCCGGTAGTACACGAGA yielded a TetR repression strength of 0.0237.

TCCCGGCCAGTCAATGAGA came in with a TetR repression strength of 0.232.

Sequence TCCCACGCAGTTTGCGAGA displayed a TetR repression strength of 0.196.

In turn, TCCCGTGCAGTGAGCGAGA showed a TetR repression strength of 0.166.

As to TCCCATGGAGTGATCGAGA, the TetR repression strength came out at 0.243.

The sequence TCCCACCAAGTACGCGAGA had a TetR repression strength of 0.287.

For the sequence TCCCCGGTAGTGTATGAGA, the TetR repression strength was determined as 0.173.

As for TCCCTATAAGTTCCAGAGA, the TetR repression strength was 0.375.

As to TCCCCCCGAGTGGGAGAGA, the TetR repression strength is 0.148.

For the sequence TCCCGAGGAGTATGAGAGA, the TetR repression strength was 0.497.

The sequence TCCCATTAAGTCCCTGAGA displayed a TetR repression strength of 0.0859.

TCCCCGCTAGTACAGGAGA displayed a TetR repression strength of 0.415.

TCCCGGCGAGTCGGCGAGA had a TetR repression strength of 0.0436.

Take TCCCGCTCAGTTGAGGAGA: the TetR repression strength came out at 0.16.

In turn, TCCCCTCTAGTCCCGGAGA showed a TetR repression strength of 0.253.

Sequence TCCCCCGGAGTTTATGAGA registered a TetR repression strength of 0.801.

The sequence TCCCGAGAAGTGAATGAGA came in with a TetR repression strength of 0.318.

In turn, TCCCTTGGAGTAGGAGAGA returned a TetR repression strength of 0.214.

In the case of TCCCTGTGAGTCCAGGAGA, the TetR repression strength is 0.352.

Regarding TCCCGGCAAGTGTAAGAGA, the TetR repression strength is 0.126.

Sequence TCCCAATTAGTCATAGAGA gave a TetR repression strength of 0.238.

In the case of TCCCGGGTAGTCGCAGAGA, the TetR repression strength worked out at 0.233.

As for TCCCTTCGAGTGATAGAGA, the TetR repression strength amounted to 0.559.

TCCCGGTGAGTGGAAGAGA: the TetR repression strength amounted to 0.328.

TCCCAGCGAGTAATTGAGA returned a TetR repression strength of 0.227.

Turning to TCCCAAGTAGTGCGGGAGA, the TetR repression strength is 0.254.

Sequence TCCCGTCCAGTACTCGAGA returned a TetR repression strength of 0.518.

TCCCAGAAAGTTGGTGAGA registered a TetR repression strength of 0.355.

Sequence TCCCTGCTAGTGAGGGAGA displayed a TetR repression strength of 0.173.

As to TCCCACTGAGTGAGCGAGA, the TetR repression strength came to 0.242.

In the case of TCCCACCTAGTTTGGGAGA, the TetR repression strength was found to be 0.238.

In the case of TCCCCACTAGTTACCGAGA, the TetR repression strength is 0.386.

TCCCTAATAGTAGCAGAGA had a TetR repression strength of 0.591.

The sequence TCCCTGAGAGTGCAGGAGA registered a TetR repression strength of 0.224.

Take TCCCGGATAGTTGTTGAGA: the TetR repression strength worked out at 0.264.

TCCCTAGGAGTTTAAGAGA displayed a TetR repression strength of 0.183.

In turn, TCCCCTGGAGTAGTAGAGA came in with a TetR repression strength of 0.266.

On to TCCCGAGTAGTAGTTGAGA, for which the TetR repression strength is 0.0777.

In turn, TCCCATGTAGTGGGTGAGA returned a TetR repression strength of 0.0985.

Take TCCCTGAGAGTTGCGGAGA: the TetR repression strength is 0.144.

Regarding TCCCTGATAGTGAATGAGA, the TetR repression strength was found to be 0.274.

For TCCCAATTAGTCTACGAGA, the TetR repression strength amounted to 0.224.

For the sequence TCCCTTGAAGTGTTAGAGA, the TetR repression strength is 0.0572.

Turning to TCCCTTTTAGTCTGAGAGA, the TetR repression strength worked out at 0.336.

For the sequence TCCCATAGAGTGAGGGAGA, the TetR repression strength was found to be 0.223.

Sequence TCCCGTGAAGTATAAGAGA registered a TetR repression strength of 0.213.

The sequence TCCCGGTCAGTTAACGAGA registered a TetR repression strength of 0.448.

In the case of TCCCCTACAGTGTGCGAGA, the TetR repression strength amounted to 0.236.

On to TCCCCATTAGTGGAGGAGA, for which the TetR repression strength is 0.275.

The sequence TCCCTAACAGTTCTCGAGA had a TetR repression strength of 0.43.

As for TCCCATTCAGTCGGTGAGA, the TetR repression strength was 0.549.

With TCCCGTCCAGTAGGGGAGA, the TetR repression strength was 0.179.

The sequence TCCCGTCAAGTGATGGAGA showed a TetR repression strength of 0.164.

Consider TCCCATACAGTCAACGAGA, for which the TetR repression strength is 0.153.

In the case of TCCCGGTGAGTCCTGGAGA, the TetR repression strength amounted to 0.254.

Regarding TCCCTACTAGTAAGCGAGA, the TetR repression strength worked out at 0.582.

Regarding TCCCTAGGAGTGCGGGAGA, the TetR repression strength is 0.172.

With TCCCAAGGAGTGGAGGAGA, the TetR repression strength was determined as 0.0531.

As for TCCCAACTAGTGACGGAGA, the TetR repression strength was 0.204.

With TCCCAGACAGTACTCGAGA, the TetR repression strength came out at 0.444.

TCCCTGTCAGTCGGGGAGA: the TetR repression strength was 0.154.

TCCCGGCGAGTACTTGAGA: the TetR repression strength was found to be 0.259.

Turning to TCCCGATTAGTCATGGAGA, the TetR repression strength worked out at 0.285.

Turning to TCCCAGGTAGTGGTGGAGA, the TetR repression strength is 0.127.

TCCCCTATAGTGTAGGAGA: the TetR repression strength amounted to 0.0194.

Regarding TCCCTAGGAGTTCATGAGA, the TetR repression strength stood at 0.163.

For TCCCAGGCAGTGGTCGAGA, the TetR repression strength stood at 0.127.

Consider TCCCTGGGAGTGATTGAGA, for which the TetR repression strength was determined as 0.133.

The sequence TCCCGCCTAGTTTGTGAGA returned a TetR repression strength of 0.179.

Sequence TCCCGTGAAGTGATTGAGA registered a TetR repression strength of 0.129.

Consider TCCCTGCGAGTTTGTGAGA, for which the TetR repression strength came out at 0.202.

Sequence TCCCAGCGAGTTGAGGAGA yielded a TetR repression strength of 0.264.

As for TCCCCAGGAGTGTGAGAGA, the TetR repression strength was found to be 0.525.

TCCCGGGGAGTCGAGGAGA: the TetR repression strength stood at 0.249.

As to TCCCGTCGAGTTAAGGAGA, the TetR repression strength was determined as 0.815.

TCCCAAACAGTGGCTGAGA: the TetR repression strength turned out to be 0.216.

As to TCCCGTCCAGTGAGGGAGA, the TetR repression strength is 0.183.

TCCCGGAAAGTTGCGGAGA had a TetR repression strength of 0.12.

The sequence TCCCGGGAAGTGGTGGAGA gave a TetR repression strength of 0.438.

As to TCCCTGTGAGTTCGGGAGA, the TetR repression strength was 0.369.

As to TCCCCACGAGTGCGAGAGA, the TetR repression strength stood at 0.11.

TCCCGCTCAGTTCTTGAGA: the TetR repression strength amounted to 0.204.

Take TCCCAATCAGTTGGTGAGA: the TetR repression strength worked out at 0.142.

In turn, TCCCATGAAGTGGCGGAGA had a TetR repression strength of 0.

With TCCCGGACAGTGGGCGAGA, the TetR repression strength is 0.0186.

As to TCCCAGGGAGTCGCGGAGA, the TetR repression strength is 0.168.

TCCCGCGGAGTGGTTGAGA came in with a TetR repression strength of 0.768.

TCCCCTAAAGTTCGTGAGA returned a TetR repression strength of 0.294.
